# Test results published in PubChem BioAssay AID588795 (National Center for Advancing Translational Sciences (NCATS), 2011).
# About 1,400 (0.36%) of roughly 390,000 compounds were called active. This list was built around the results that the source calls inconclusive (neither active nor inactive); the mix of calls is not that of the screen. Calls come from the whole dose curve; as a rule, active = well fitted inhibition curve with a large enough effect; inconclusive = small, poorly fitted or top-dose-only effect; inactive = no such curve, though single readings can be large or run the other way. A potency beside an inconclusive call is a rough fit, not a confirmed value.
# Biological target: Flap endonuclease 1 (Homo sapiens) (UniProt P39748)
# Experiment: qHTS Assay for the Inhibitors of Human Flap endonuclease 1 (FEN1). Note: nearly all actives have a fitted effect of over 65% in size.
# Conditions: Recombinant FEN1 flap cleavage, fluorescence, 15 min; series mostly up to 114 µM
# Summary of the method: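 Potency values derive from four-parameter Hill fits of normalized qHTS data. The reaction used 10 nM FEN1 preincubated 15 min at room temperature with compound, then 50 nM DNA substrate, read at 0 and 15 min.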
# Potency is the fitted concentration of half-maximal effect; tags give direction and shape of the fitted curve.
# Sequence of UniProt P39748 (P39748 whole entry, looked up): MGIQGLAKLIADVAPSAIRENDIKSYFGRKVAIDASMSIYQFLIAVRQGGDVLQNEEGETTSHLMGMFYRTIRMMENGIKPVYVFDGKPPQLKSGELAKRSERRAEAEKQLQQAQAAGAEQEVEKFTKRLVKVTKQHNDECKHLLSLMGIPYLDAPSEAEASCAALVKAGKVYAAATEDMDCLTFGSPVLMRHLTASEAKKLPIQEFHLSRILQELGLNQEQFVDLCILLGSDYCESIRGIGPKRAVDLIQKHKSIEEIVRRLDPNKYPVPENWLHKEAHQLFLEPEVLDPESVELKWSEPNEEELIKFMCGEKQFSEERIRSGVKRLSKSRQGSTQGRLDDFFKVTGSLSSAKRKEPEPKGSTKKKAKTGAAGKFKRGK
row,Structure (SMILES),Potency
1,Cc1ccc(S(=O)(=O)N(C)CCN(C)c2nc(-c3cccs3)nc3ccccc23)cc1,inactive
2,Cn1c(N)c(C(=O)COC(=O)CCOc2ccc(C(C)(C)C)cc2)c(=O)n(C)c1=O,"inconclusive: 89.1 µM [inhibitor, partial curve, poor fit]"
3,CSC1=NSC2=NC(=O)/C(=C\c3coc4ccccc4c3=O)C(=N)N12,active: 79.4 µM
4,CC[C@H](C)[C@@H]1NC(=O)c2cc([N+](=O)[O-])cc(I)c2SC[C@@H](C(N)=O)NC(=O)[C@H](CCCCN)NC1=O,"inconclusive: 89.1 µM [inhibitor, single point]"
5,Cc1nc(SCC#N)c2c3c(sc2n1)CCC3,inactive
6,O=C1CC(=O)N(c2ccccc2)c2ccccc21,"inconclusive: 89.1 µM [inhibitor, partial curve, poor fit]"
7,COc1cc2c(c(OC)c1OC)C(=O)C(=Cc1ccccc1)O2,"inconclusive: 63.1 µM [inhibitor, partial curve, poor fit]"
8,CC(=O)Nc1ccc(C2Nc3c(C)cc(C)cc3-c3cc(C)nn32)cc1 (stereo unspecified),inactive
9,COc1ccc(-c2nnc3ccc(SCC(=O)N4CCOCC4)nn23)cc1,inactive
10,O=C1CN(Cc2ccccc2)S(=O)(=O)c2ccccc21,"inconclusive: 100 µM [inhibitor, partial curve, poor fit]"
11,Cc1cc(C)cc(N2C(=O)C3CC=CCC3C2=O)c1 (stereo unspecified),inactive
12,COCCCn1c(SCc2ccccc2)nc2cc(OC)c(OC)cc2c1=N,"inconclusive: 50.1 µM [inhibitor, partial curve]"
13,CCOC(=O)C(=Cc1ccc2c(c1)OCO2)c1ccccc1,"inconclusive: 89.1 µM [inhibitor, partial curve, poor fit]"
14,N#Cc1c(-c2cccs2)nc(SCC(=O)c2ccc(Br)cc2)[nH]c1=O,"inconclusive: 89.1 µM [inhibitor, single point]"
15,O=C(O)c1ccc(CSc2n[nH]c(-c3ccco3)n2)cc1,"inconclusive: 70.8 µM [inhibitor, single point]"
16,Cc1ccc(Nc2nc(-c3c(C)nc4ncccn34)cs2)cc1,"inconclusive: 79.4 µM [inhibitor, single point]"
17,Clc1cccc(-c2nc(NCCCN3CCOCC3)c3ccccc3n2)c1,"inconclusive: 20 µM [inhibitor, partial curve, poor fit]"
18,Cc1c(Cl)ccc2c(C(=O)NCCN3CCCCC3)cc(-c3ccccn3)nc12,"inconclusive: 50.1 µM [inhibitor, partial curve, poor fit]"
19,COc1ccc(NC(=O)Cc2csc(NC(=O)Nc3ccccc3OC)n2)c(OC)c1,"inconclusive: 44.7 µM [inhibitor, partial curve, poor fit]"
20,Nn1cnnc1N/N=C/c1ccc(Cl)c([N+](=O)[O-])c1,"inconclusive: 17.8 µM [inhibitor, full curve]"
21,Cc1cc(C=O)c(C)n1-c1ccc(Cl)c(C(=O)O)c1,"inconclusive: 25.1 µM [inhibitor, full curve]"

row,Structure (SMILES),Potency
1,N#CC1=C2SCN(Cc3ccccc3)CN2C(=O)CC1c1cccs1 (stereo unspecified),"inconclusive: 20 µM [inhibitor, full curve, poor fit]"
2,S=C(NCc1ccco1)Nc1ccc(Oc2ccccc2)cc1,"inconclusive: 28.2 µM [inhibitor, full curve]"
3,CC(=O)Oc1cc(C(=O)OCC(=O)NC23CC4CC(CC(C4)C2)C3)cc(OC(C)=O)c1OC(C)=O,active: 14.1 µM
4,CCOc1cccc(=O)c2c(C)n(-c3ccc(C(=O)O)cc3)c(C)c12,"inconclusive: 89.1 µM [inhibitor, single point]"
5,COc1cc2[nH]c3c(Cl)ncnc3c2cc1OC,"inconclusive: 39.8 µM [inhibitor, partial curve, poor fit]"
6,COc1ccc2c(c1)c(=O)oc1c(C)c(OCc3ccc(C(=O)O)cc3)ccc12,"inconclusive: 39.8 µM [inhibitor, partial curve, poor fit]"
7,COc1cc(/C=N/NC(=O)c2ccc(CSc3nc4ccccc4[nH]3)cc2)ccc1O,"inconclusive: 35.5 µM [inhibitor, single point]"
8,CCCCCCNS(=O)(=O)c1ccc(Cl)s1,"inconclusive: 89.1 µM [inhibitor, partial curve, poor fit]"
9,O=C(NC1CCCCC1)C(c1cccs1)N(Cc1cccs1)C(=O)c1ccco1 (stereo unspecified),"inconclusive: 79.4 µM [inhibitor, partial curve, poor fit]"
10,COc1ccc(C(=O)c2cn(CC(=O)Nc3ccc4c(c3)OCCO4)c3ccc(OC)cc3c2=O)cc1,active: 39.8 µM
11,O=C(O)COc1ccccc1/C=N/NC(=O)CSc1nc2ccccc2c(=O)n1-c1ccc(Cl)cc1,"inconclusive: 89.1 µM [inhibitor, single point]"
12,Cc1ccc(-c2ccc(=O)n(Cc3cc(C)ccc3C)n2)cc1,"inconclusive: 89.1 µM [inhibitor, partial curve, poor fit]"
13,Cc1ccc(C(C)C)c(OCC(=O)Nc2cccc(NC(=O)c3ccco3)c2)c1,"inconclusive: 79.4 µM [inhibitor, partial curve, poor fit]"
14,c1cnc(SCCOc2ccc3c(c2)CCC3)nc1,"inconclusive: 89.1 µM [inhibitor, partial curve, poor fit]"
15,COC(=O)C(Cc1c[nH]c2ccccc12)NC(=O)COc1ccc(Cl)cc1Cl (stereo unspecified),"inconclusive: 79.4 µM [inhibitor, partial curve, poor fit]"
16,COc1cc(-c2cc(C(=O)Nc3ccncc3)c3ccccc3n2)cc(OC)c1OC,"inconclusive: 50.1 µM [inhibitor, partial curve, poor fit]"
17,Cc1c(Cl)cccc1S(=O)(=O)N1CCC(C(=O)NNC(=O)C2CC2)CC1,inactive
18,O=C(NCc1ccco1)c1ccc(C(F)(F)F)cc1,inactive
19,CCC(C)NC(=O)Cn1ncc2c([nH]c3ccc(C)cc32)c1=O (stereo unspecified),inactive
20,COc1cc2c(cc1OC)CN(C(=O)/C=C/c1ccc([N+](=O)[O-])cc1)CC2,"inconclusive: 31.6 µM [inhibitor, partial curve, poor fit]"
